From paper PMC12136788 come the findings set out here.

B1: chr17:29498396:29498497:+|CDS|ENSG00000160551|msi1|total|mutant (ssRNA)
RNA: GGGAGUUCUACAGUCCGACGAUCCAGCAGCCAAAGCAGCCGUGUUAACAGUCUUCCAGAUGUCUCAGAUGACAAGAGUGAGCCCGACAUGAUGGAGGGAGACCACACAGUGAUGUCUAACAGUUCUGUUAUCCAUUUAAAACCCAACAGAGGAUUGAGCAUCA
B2: chr6:133987709:133987810:+|3pUTR|ENSG00000028839|unk|total|mutant (ssRNA)
RNA: GGGAGUUCUACAGUCCGACGAUCAAUAACAAACCGGAAUUUUUUUUCUUGCAGAUCCGAAAUAAAAACGUGUAUAUAAACUCCCGGGAACCAGACCCGAAGUUUACCGAUAAAGGAUAAUGUUUUAUGUUGCUAAUUUAAUAUCAACAGAGGAUUGAGCAUCA
B3: chrX:50586795:50596694:-|three_prime_utr|ENSG00000158352|control|control|control (ssRNA)
RNA: GGGAGUUCUACAGUCCGACGAUCAGCACUCUGCCACAGCAUCCCUGCCCAGCCAUGUGGGAAGUGCUUUCAAUCUUCUUUGUUAGCAGUUUCUCAGCAAGUAGAUAGCAAUUAGCAGUUUGUUCCAGCCCUCUACCCUGGAUGCAACAGAGGAUUGAGCAUCA
B4: chr19:13095865:13096029:+|3pUTR|ENSG00000008441|msi1|total|mutant (ssRNA)
RNA: GGGAGUUCUACAGUCCGACGAUCCCGCCCCCCACGUGGCCACUUUUCUCUGGAUUUCCGCUGUAAUGUCUUUACUCUUUAUUCCGGGGUGGGGCAUUCAUUGUUUGGGUCUUUUGCUGUUGGAAUGGGAACUCCUCCUCCAUUCAACAGAGGAUUGAGCAUCA
B5: chr8:124550783:124552991:-|three_prime_utr|ENSG00000170873|control|control|control (ssRNA)
RNA: GGGAGUUCUACAGUCCGACGAUCAUUAAUAAAACCUAAUUUGUCUUGAUCCAUUCCACUCUAUAAUAAAACAAAAGAUUUUGUAGGCAACUCGGAAUAUAGCUCUUUUGAAAGUACUCGACACCUUUAGAUAAGAAUUAAAACCAACAGAGGAUUGAGCAUCA
B6: chr10:73251842:73251943:-|CDS|ENSG00000182180|msi1|FALSE|unique (ssRNA)
RNA: GGGAGUUCUACAGUCCGACGAUCUCGGCCGUUCUACCGCAUUGUGGCUGCUCACAACAAGUGUCCCAGGGAUGGCCGUUUCGUAGAGCAGCUGGGCUCCUAUGAUCCAUUGCCCAACAGUCAUGGAGAAAAACUCGUUGCCCUCAACAGAGGAUUGAGCAUCA
B7: chr5:76733371:76733472:+|CDS|ENSG00000181104|msi1|FALSE|unique (ssRNA)
RNA: GGGAGUUCUACAGUCCGACGAUCGAUCCCAGCAGUUAUAACAGCAGUGGGCAGUUGAUGGCAAGUAAAAUGGAUACCUGCUCUAGUAACCUGAAUAACAGCAUAUACAAAAAGCUGUUAACUUAGGAAAAGGGACUGCUGGGACAACAGAGGAUUGAGCAUCA
B8: chr7:38725943:38726055:-|3pUTR|ENSG00000006715|unk|total|mutant (ssRNA)
RNA: GGGAGUUCUACAGUCCGACGAUCGAAAUUUUGGGGUCCACCGUGAAUAUUUUGUUAUUUAUUUGUUUGGCUCAUUCUUUAUACCGUAAUGGAAACAUAAGUCCCGGAGUCCGAAAUGAAUUUUUCCGACCUCCGUAAAACCAUCAACAGAGGAUUGAGCAUCA
B9: chr17:77200548:77200649:+|CDS|ENSG00000129657|msi1|FALSE|bound_elsewhere (ssRNA)
RNA: GGGAGUUCUACAGUCCGACGAUCUAUUGACAAAGCCAGAGAGAUCAUGUGUCAGUCUUUGACGUGGAGAAAGCAGCAUCAGGUAGACUACAUUCUUGAAACCUGGACCCCUCCUCAGGUCCUUCAGGAUUACUACGCGGGAGGCAACAGAGGAUUGAGCAUCA
B10: ENSG00000136451:be:win_1951|3pUTR|ENSG00000136451|bound_else_gene|NA|bound_elsewhere_windowed (ssRNA)
RNA: GGGAGUUCUACAGUCCGACGAUCCAAGGUGGAUGGCUGAUUUUAACCUGAAAUUUUAAAUCCACAGAUUGAGAGCUAGUGUAGAAUUGUCUGUGUUUAUUGUUUUUAUGAGUAAAUACAUGCAUUGUCAUAAUAAAAUGCAUUCAACAGAGGAUUGAGCAUCA
B11: chr17:7460970:7461071:-|3pUTR|ENSG00000174282|msi1|total|mutant (ssRNA)
RNA: GGGAGUUCUACAGUCCGACGAUCGGAUGGAGAAGGGAAUCUACUUUCUCCCUGUUUUUUUUUCCUGAUGGUUUCUCCCAGACCCGACCAAACCGCCAGAAAAAUGACCGGGGUCGGAUGGGUGGGUAAGCCCAGGAUUUGCACCAACAGAGGAUUGAGCAUCA
B12: chrX:154027874:154027956:-|3pUTR|ENSG00000169057|msi1_unk|FALSE|overlapping (ssRNA)
RNA: GGGAGUUCUACAGUCCGACGAUCUGGUUAGAAGUGAGGGAGUUUGCCCCGUUCUGUUUGUAGAGUCUCAUAGUUGGACUUUCUAGCAUAUAUGUGUCCAUUUCCUUAUGCUGUAAAAGCAAGUCCUGCAACCAAACUCCCAUCCAACAGAGGAUUGAGCAUCA
B13: chr1:93152962:93153063:-|3pUTR|ENSG00000117500|msi1|FALSE|bound_elsewhere (ssRNA)
RNA: GGGAGUUCUACAGUCCGACGAUCGCUGGAAUUCUUGAUGAGCAAUAAUGAUAACCAGAGAGUGAUUUCAUUUACACUCAUAGUAGUAUAAAAAGAGAUACAUUUCCCUCUUAGGCCCCUGGGAGAAGAGCAGCUUAGAUUUCCCAACAGAGGAUUGAGCAUCA
B14: chr1:225494445:225494546:-|3pUTR|ENSG00000154380|msi1|FALSE|unique (ssRNA)
RNA: GGGAGUUCUACAGUCCGACGAUCUUGGGUGUUCCCUCUUCUUAUUUUCUCUCUGCCCACCUUGACACAGUAACUUCCUCUUAUAGUCAAGAUGAUGAUUAAGUGUUUAAUUUUUAUUCCAUUUUGUUCUGCAACACGUUCAGGCAACAGAGGAUUGAGCAUCA
B15: chr14:73713276:73713377:-|CDS|ENSG00000176903|unk|FALSE|unique (ssRNA)
RNA: GGGAGUUCUACAGUCCGACGAUCGGGCAAAGGAGGGGUCUGGAAAGUGUUAUUUAAGCCCCCAACUUCUGAUGCUGAAUUUUUAGAAAGAUUGCACCUCUUCCUAGCUAGAGAGGGGUGGACCGUGCAAGAUGUUGCCCGUGUCAACAGAGGAUUGAGCAUCA
B16: chr6:111694403:111694505:-|CDS|ENSG00000010810|unk|FALSE|bound_elsewhere (ssRNA)
RNA: GGGAGUUCUACAGUCCGACGAUCAAUGGCUUACAUCGAGCGCAUGAAUUAUAUCCAUAGAGAUCUGCGAUCAGCAAACAUUCUAGUGGGGAAUGGACUCAUAUGCAAGAUUGCUGACUUCGGAUUGGCCCGAUUGAUAGAAGACAACAGAGGAUUGAGCAUCA
B17: ENSG00000079335:stop:overlap|stop_codon|ENSG00000079335|stop_codon|NA|stop_codon (ssRNA)
RNA: GGGAGUUCUACAGUCCGACGAUCUUGGUGGAAAUCUUUCAAAAACACAAAACAUGGAACGAUUUGGAGAGGUAAGUUUUCCCUAGGAGAUUCUAUCUUCUUAAAACUGAUGUUCUGCAUUUGUUUCUCAGUUGGACCUAUAUACAACAGAGGAUUGAGCAUCA
B18: chr2:240466480:240466663:+|3pUTR|ENSG00000063660|msi1|total|mutant (ssRNA)
RNA: GGGAGUUCUACAGUCCGACGAUCGGAGCCAGUGUGCCCAAAAGCCAUGUAUUUCAGGGACCUCAGGGGCACCUCCGGCUGCCCCGCCCUCCCCCCAGCUCCCUGCACCGCCGCAGAAGCAGCCCCUCGAGGCCUACAGAGGAGCAACAGAGGAUUGAGCAUCA
B19: chr12:118033712:118033825:-|3pUTR|ENSG00000176871|unk|total|mutant (ssRNA)
RNA: GGGAGUUCUACAGUCCGACGAUCCCUCCGCUGGGAACGAUGGCUUCUGCCCCGUACCUAUCCUUGUGUUUCUGAUGCAGUGGCCGCAUUGGUUCAAGUUCUCUCCUGCUGUGGUCAGAGUUGCUUCGAUGUUGGCCAAGUGCUCAACAGAGGAUUGAGCAUCA
B20: chr6:149410404:149410522:+|3pUTR|ENSG00000055208|unk|total|mutant (ssRNA)
RNA: GGGAGUUCUACAGUCCGACGAUCUUAUAUUUCUAUAUGUACCGUGUAACCGCCUUUUGUUAACUAAUUUUCUUUUUUCCUUUCCGUAAUUAAGCACGAUCAUGUCCCUUUUUAAGCCUUACCUGAGAGGAACAAUGCCUUAAACAACAGAGGAUUGAGCAUCA
B21: chr12:49764829:49764866:+|3pUTR|ENSG00000139644|msi1_unk|FALSE|overlapping (ssRNA)
RNA: GGGAGUUCUACAGUCCGACGAUCACUUUUAAAGAAAAUACCUAACAGAUUUUUAAUAUAGUUAUCUCUACCACUUUCUUUUCUAGUUUCUUGAUUUUCAGCUCAGGCUGCAUUCUAACUCAUACUGUGAAGACAAAGGUGUUUCAACAGAGGAUUGAGCAUCA
B22: chr8:116643852:116643953:-|3pUTR|ENSG00000147677|unk|FALSE|unique (ssRNA)
RNA: GGGAGUUCUACAGUCCGACGAUCUGUUGUGAAUGAGGAAUUAGGAAUUAGGAGAAUGGUAGUACAUUGGGAAAAACAUAUUUUAGUAAUUUUUAUAUUUUAAAGAUAAUCACAGAUUUUGCUGUUUGUGCAUCACCAAAAUCACAACAGAGGAUUGAGCAUCA

The list shows a part of the results.

The test deals with MSI1 full-length (mouse, UniProt Q61474 1-362). Nature of the test: nsRBNS (natural sequence RNA bind-n-seq); RBNS binding buffer (assumed for nsRBNS): 25 mM Tris pH 7.5, 150 mM KCl, 3 mM MgCl2, 0.01% Triton X-100, 500 ug/ml BSA, 20 U/ml SUPERase-In, 4 C; UNK is unkempt and MSI1 is Musashi-1; names of the RNAs are library labels; protein concentration not given here; high values mean tight binding.
Sequence of UniProt Q61474 (Q61474 whole entry): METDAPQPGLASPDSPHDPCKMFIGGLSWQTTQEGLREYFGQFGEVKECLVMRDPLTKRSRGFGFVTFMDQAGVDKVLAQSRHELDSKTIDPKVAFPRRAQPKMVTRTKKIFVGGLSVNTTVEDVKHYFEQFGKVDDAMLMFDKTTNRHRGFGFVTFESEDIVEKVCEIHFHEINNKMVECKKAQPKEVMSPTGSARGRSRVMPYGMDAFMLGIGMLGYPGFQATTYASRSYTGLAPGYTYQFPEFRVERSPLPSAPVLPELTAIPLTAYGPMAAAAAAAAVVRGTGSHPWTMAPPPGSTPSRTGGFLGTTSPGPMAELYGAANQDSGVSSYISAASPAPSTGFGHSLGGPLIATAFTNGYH
B1: the binding signal worked out at 0.495 enrichment R. The value for B2 was 0.788 enrichment R; that for B3 was 1.65 enrichment R; that for B4 was 0.559 enrichment R. Regarding B5, the binding signal was determined as 6.04 enrichment R.

B6 displayed a binding signal of 0.318 enrichment R.

Regarding B7, the binding signal stood at 0.429 enrichment R. The molecule B8 registered a binding signal of 0.372 enrichment R. B9 showed a binding signal of 0.42 enrichment R. B10 had a binding signal of 1.39 enrichment R. The molecule B11 yielded a binding signal of 0.32 enrichment R.

As to B12, the binding signal turned out to be 0.756 enrichment R. B13: the binding signal amounted to 12.1 enrichment R.

In turn, B14 had a binding signal of 0.951 enrichment R. B15 had a binding signal of 1.19 enrichment R. Regarding B16, the binding signal came out at 0.4 enrichment R. For the molecule B17, the binding signal was found to be 4.56 enrichment R. For B18, the binding signal amounted to 0.43 enrichment R. Regarding B19, the binding signal was found to be 0.348 enrichment R. In turn, B20 yielded a binding signal of 11.2 enrichment R. As for B21, the binding signal is 3.05 enrichment R. On to B22, for which the binding signal amounted to 7.02 enrichment R.
